The full ranking holds about 33,000 sequences; the median of “E-score (-0.5 to 0.5)” is about -0.036, and the highest 2% start at about 0.37. This is one part of the list.
Target: T1, Yer064c (UniProt P40041)
T1 sequence: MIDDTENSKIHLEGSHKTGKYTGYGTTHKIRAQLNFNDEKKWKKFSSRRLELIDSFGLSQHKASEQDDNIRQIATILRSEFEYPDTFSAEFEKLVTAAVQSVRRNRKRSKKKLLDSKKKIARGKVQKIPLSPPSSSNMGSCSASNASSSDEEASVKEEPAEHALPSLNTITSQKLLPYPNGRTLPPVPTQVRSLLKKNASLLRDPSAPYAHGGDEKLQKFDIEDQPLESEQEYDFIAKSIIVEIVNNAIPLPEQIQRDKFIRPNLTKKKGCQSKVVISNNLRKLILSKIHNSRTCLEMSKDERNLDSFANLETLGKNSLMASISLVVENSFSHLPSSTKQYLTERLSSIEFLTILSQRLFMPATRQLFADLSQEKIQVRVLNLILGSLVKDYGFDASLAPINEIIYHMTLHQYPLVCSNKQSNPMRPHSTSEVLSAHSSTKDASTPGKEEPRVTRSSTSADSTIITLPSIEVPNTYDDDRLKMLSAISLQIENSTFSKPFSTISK
Assay: PBM E-score (8-mer binding enrichment) (E-score (-0.5 to 0.5)); higher = stronger / more preferred TF binding; most listed sequences are background and not binding sites
Details: protein concentration: 200 nM; construct: GST-full length
Method in brief: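 E-scores (a modified Wilcoxon-Mann-Whitney statistic) were assigned by the Universal PBM Analysis Suite to every ungapped eight-base word pooled with its reverse complement. The input came from universal all-10-mer Agilent arrays made double-stranded by primer extension and probed with GST-tagged yeast transcription factors at about 100-200 nM. Fluorescent anti-GST detected bound protein, and masliner normalised the scans.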

Row | Sequence | PBM E-score
1 | AGTGCGAT | -0.0764
2 | TCAATAAA | 0.171
3 | CCGATACC | -0.285
4 | TCCAGAGA | -0.0134
5 | AGAGGACC | -0.235
6 | CTTTTGGA | -0.0676
7 | CCCTCACA | -0.248
8 | ACCATCTC | -0.0631
9 | ATTCAGGA | 0.106
10 | CCATATGA | 0.0961
11 | ATAGAGGC | -0.188
12 | AAAGAACT | -0.0554
13 | GCATGGTA | -0.143
14 | AGTATCGC | -0.159
15 | CTTCACGA | -0.133
16 | GTATCGAA | -0.00179
17 | CTTTTCGA | -0.0304
18 | CGAACAAA | 0.0495
19 | TATTCGCA | -0.0943
20 | CCCACCGC | -0.11
21 | CAGCGAAG | 0.0763
22 | GACCTCAA | 0.074
23 | ATCTCCTG | -0.0068
24 | GCGGCGCC | -0.318
25 | GCTCGAAA | -0.134

Row | Sequence | PBM E-score
26 | ATTGTTCG | 0.164
27 | GCACGCCA | -0.154
28 | CAACCGAG | -0.193
29 | TCTCTAAA | -0.0284
30 | TGGACACA | -0.102
31 | GCAGGGTA | -0.274
32 | ATGAGGTG | -0.189
33 | AATCCCTG | 0.0412
34 | ATCGCTCG | -0.0343
35 | ACGATAAC | -0.0162
36 | ACTACACT | 0.157
37 | TTTATAAA | 0.0537
38 | ACTGGAAC | 0.0191
39 | AAGCCAGT | 0.0361
40 | AGTCGATG | 0.249
41 | AAGACGAG | -0.105
42 | ACTCGCGG | 0.163
43 | AGGGAGGC | -0.221
44 | CGATGATC | 0.155
45 | ATGTCACG | -0.123
46 | GAGGCAAA | -0.197
47 | AGCGTTGA | -0.119
48 | GACGGTGC | -0.325
49 | GTGGCCAC | -0.0356
50 | CGGTTAAA | 0.0362

Row | Sequence | PBM E-score
51 | ACTGCATC | 0.253
52 | GAGGTTGA | 0.0123
53 | CCTAGCGA | -0.0137
54 | ATTATAAA | 0.156
55 | GACTCAGA | 0.458
56 | AATTTGAC | 0.137
57 | AAGCCCCG | -0.131
58 | TACCGAGA | 0.146
59 | CAGACCAC | -0.164
60 | TTGAGCAA | -0.0255
61 | GAGTACGC | 0.229
62 | GCAGAGAC | 0.159
63 | GTACTGAC | 0.283
64 | GCGATTCC | 0.143
65 | ACATACCT | -0.14
66 | CTTACAAG | -0.138
67 | AAATTTGA | 0.114
68 | CCCCGTTA | -0.0142
69 | AGGAGGTC | -0.207
70 | CAGCCCAG | -0.326
71 | AACGCTCT | -0.203
72 | AACTACGG | -0.351
73 | CGATCTTC | -0.277
74 | AGATGGTC | -0.295
75 | TATTCCCA | 0.00714

Row | Sequence | PBM E-score
76 | CAGAGTCA | 0.469
77 | GGCCCTAA | -0.174
78 | CGGATCCG | -0.104
79 | TATAGGGA | -0.00212
80 | AGCCGTTA | -0.011
81 | GCGGGTCA | 0.148
82 | CACCCGCG | 0.0436
83 | CGGGCAGC | -0.122
84 | GCCGCGGA | -0.216
85 | CTAGTCAG | 0.418
86 | GAGACTAA | 0.413
87 | CCTAAGGA | 0.0353
88 | AGGCGACT | 0.387
89 | CCCTATGC | -0.215
90 | ACTTCGGA | 0.0392
91 | AGAAAGCG | -0.082
92 | CCGCCCCA | -0.155
93 | AGTGTCTA | 0.154
94 | CGTAATCA | 0.42
95 | ACTCCCCA | 0.207
96 | GTGGCAAC | -0.295
97 | ATGGGTAA | 0.275
98 | CTTACTCC | 0.128
99 | CAACACCG | -0.0689
100 | CTATAGTC | 0.37

Row | Sequence | PBM E-score
101 | ATTCCTCG | -0.0413
102 | AACCGTAT | -0.193
103 | ACTTACAA | 0.155
104 | AAGAGTAA | 0.151
105 | CAAACGGC | -0.147
106 | CCGGCATC | -0.251
107 | AAGCTGAC | 0.176
108 | ATTGAAGG | 0.114
109 | CCTGTGAC | 0.144
110 | AGCGTAGC | -0.0386
111 | GAGATTGC | -0.145
112 | GCAGAGTA | -0.0539
113 | CCTTCGTC | -0.0151
114 | CTCCGCCC | -0.221
115 | GAGTATTA | 0.175
116 | AATAGCGG | -0.18
117 | ACCGCAGT | 0.0526
118 | GAGCCCGA | 0.1
119 | ACCGACCC | -0.141
120 | AACCACTG | 0.0676
121 | AAAAGGAC | 0.036
122 | CCGAACCA | -0.222
123 | TCGGAGCA | -0.222
124 | AAATGCCG | -0.169
125 | AATGATTC | 0.464

Row | Sequence | PBM E-score
126 | CCCTCTAC | -0.149
127 | ACCTGAGA | -0.0139
128 | AGCCCGCA | -0.0469
129 | GGACCCAC | -0.07
130 | CACGAGCG | -0.101
131 | GGCACAAA | -0.255
132 | GACAAAGA | 0.0339
133 | CAGTGTAA | 0.0877
134 | CACTCCTC | -0.206
135 | AGCTCCGG | -0.18
136 | CTACGACC | -0.0192
137 | AACCATTA | 0.198
138 | AGGAGCTC | -0.0695
139 | CCGGTCTA | 0.058
140 | CAGGTCTA | 0.00506
141 | GAGGATGA | 0.0709
142 | AGACCATC | -0.124
143 | ACGGAAGA | -0.0128
144 | ATATTATA | -0.00602
145 | ATACACCG | -0.117
146 | AAGCGGCC | -0.245
147 | CGGCCTGA | -0.139
148 | CCGTACCG | -0.08
149 | ATTTAGAA | -0.011
150 | CTGGTCAA | -0.205

Row | Sequence | PBM E-score
151 | CTAGACCA | -0.0688
152 | AAGTCTCA | 0.239
153 | AACGCATC | -0.127
154 | CTAATGAA | 0.184
155 | AAAGATAG | 0.0338
156 | AGTTAAGC | -0.109
157 | ACTAACAC | 0.315
158 | CGCGAAAA | -0.0519
159 | CTTTTGAA | -0.0309
160 | CCTAATCG | 0.0953
161 | CTTGGAGA | -0.00946
162 | ATAATACG | -0.0247
163 | CAGGCCCG | -0.317
164 | CACTCACG | 0.112
165 | ACATACTG | -0.115
166 | AACGGAAA | 0.0241
167 | CGGTGCTC | -0.133
168 | CTTCTCCC | -0.131
169 | AGTCTCGA | 0.24
170 | GTCCAGCA | -0.0814
171 | CTGATACC | -0.106
172 | TCGCGTAA | -0.0334
